Laboratory results reported in PubChem BioAssay AID1508624 (National Center for Advancing Translational Sciences (NCATS), 2021).
About 120 (0.25%) of roughly 48,000 compounds were called active. Roughly 4% stayed inconclusive and do not appear here. Calls follow the shape of the dose curve; as a rule, active = well fitted activation curve with a large enough effect; inconclusive = small, poorly fitted or top-dose-only effect, or another doubt; inactive = no such curve, though single readings can be large or run the other way. This is one part of the list.

test: Primary qHTS for Identification of Small Molecule Activators of Huntingtin-Antisense Promoter Activity; details: HEK293 HTT-AS promoter firefly luciferase reporter, 24 h; series mostly up to 57.5 µM; activity change, positive = activation: at the top concentration; also: nearly all actives have a fitted effect of over 55% in size
Procedure, shortened: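 HEK293 luciferase promoter-reporter cells (2,500/well) plated 24 h, then compounds added at up to 57.5 uM final for 24 h at 37 °C. Firefly luminescence by Dual-Glo, normalized to vehicle (0%) and zero RLU (-100%).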

Activity change, positive = activation, inactive:
CCOC(=O)C1=C(CN2CCC(C(=O)OCC)CC2)NC(=O)NC1c1ccc(Cl)cc1 (stereo not drawn) -39%
Cc1oc(-c2ccccc2)nc1CNC(=O)Nc1ccccc1 -20.1%
CCc1cccc(C)c1NC(=O)c1cnn(-c2ccc(F)cc2)c1-n1cccc1 -30.6%
CSc1nn(Cc2cccc(F)c2)c(N(C(C)=O)C(C)=O)c1S(=O)(=O)c1ccccc1 -32.4%
Cc1cccc(S(=O)(=O)c2cn(Cc3ccccc3)c3cc(N4CCCC(C)C4)c(F)cc3c2=O)c1 (stereo not drawn) -1.97%
Clc1ccc(CSc2nc(NCCc3ccccc3)c3ccccc3n2)cc1 -15%
Cc1cc(NC(=O)C2CCCN(S(=O)(=O)c3cccc4nonc34)C2)ccc1Br (stereo not drawn) -4.81%
COc1ccc(OC)c(CNCc2c(C(=O)O)n(Cc3ccccc3)c3cc(OC)ccc23)c1 -15.6%
CCC(=O)N1CCc2cc(S(=O)(=O)NC(CC(C)C)C(=O)Nc3ccc(CC)cc3)ccc21 (stereo not drawn) -3.99%
O=C1Nc2ccccc2Oc2cc(Oc3ccc(Cl)cc3)ccc21 -22.1%
O=C(CN1N=C(c2ccc(Cl)cc2)CCC1=O)NCc1ccc(F)cc1 -13.3%
Cc1ccc(NC(=O)Cn2c(=O)oc3cc(S(=O)(=O)N4CCCC4)ccc32)cc1F -32.9%
COc1cccc(C2C(C(=O)Nc3cccnc3)=C(C)Nc3nc(SCc4ccccc4)nn32)c1 (stereo not drawn) -4.99%
CCOC(=O)c1ccc(NC(=O)C2CCCN(c3ncnc4onc(C)c34)C2)cc1 (stereo not drawn) -31.2%
Cc1nc2ccc(S(=O)(=O)CCC(=O)Nc3ccccc3C)cc2s1 -6.98%
O=C(CC1NCCNC1=O)Nc1cccc(F)c1 (stereo not drawn) -6.83%
Cc1ccc2ncc3c(-c4ccccc4)nn(CC(=O)NC4CCCCC4)c3c2c1 -12%
COc1ccccc1N1CCN(CCCNC(=O)Cn2ncc3c([nH]c4ccccc43)c2=O)CC1 -14.5%
COc1ccc(NC(=O)CSC2=Nc3ccccc3C3=NC(CCC(=O)NCc4ccco4)C(=O)N23)cc1 (stereo not drawn) -9.04%
COc1ccccc1CNC(=O)C(=O)NCC(c1ccc2c(c1)OCO2)N1CCOCC1 (stereo not drawn) -11.4%
CCc1ccc(CNc2nc3nc(C)c(Cc4ccccc4)c(=O)n3[nH]2)cc1 -2.4%
CCc1ccc(-c2nc(SCC(=O)NCCOC)c(-c3ccc(C)cc3)[nH]2)cc1 -21.9%
CCc1ccc(CN2CCc3nc(Nc4ccc5c(c4)OCCO5)ncc3C2)cc1 -16.6%
COc1ccc(Nc2nnc(-c3ccc(C)c(S(N)(=O)=O)c3)c3ccccc23)cc1 -39.4%
CC(=O)c1cccc(NC(=O)C2=CC(c3ccco3)=NS(=O)(=O)N2C)c1 -1.74%
CCC(CC)C(=O)Nc1ccccc1C(=O)OCc1cc(=O)n2nc(C3CCCCC3)sc2n1 -18.7%
COc1ccc(Cl)cc1N(C)C(=O)Cn1cnc2sc(C)c(S(=O)(=O)N3CCN(c4ncccn4)CC3)c2c1=O -11.7%
CCOc1ccc(CNC(=O)Cn2ncc3c(=O)oc4ccc(C)cc4c32)cc1 -11.5%
Cc1ccc(C)c(CN2C(=O)c3ccccc3S(=O)(=O)c3ccc(C(=O)N4CCOCC4)cc32)c1 -31.6%
COc1ccc(C(=O)N2CCCCC2CCN2CCCCC2)cc1 (stereo not drawn) -4.06%
COc1ccc(Cl)cc1NC(=O)[C@H]1O[C@@H]2OC(C)(C)O[C@@H]2[C@H]2OC(C)(C)O[C@H]21 -8.16%
O=S(=O)(c1cccs1)N1CCN(c2ccc(Cl)cc2)CC1 0.955%
Cc1ccc(-c2cc(C(F)(F)F)n3nc(C(=O)Nc4ccc(C#N)cc4)cc3n2)cc1 -3.49% [at 11.5 µM, percent change from vehicle, -100% = no light]
CCOc1ccccc1CNC(=O)CCCN1C(=O)CCn2nc(-c3cccn3C)cc21 -6.86%
Cc1ccc(CNC(=O)C2CCN(S(=O)(=O)c3ccc4c(c3)oc(=O)n4C)CC2)cc1 -6.11%
CCc1ccc(-n2nc(C)c3c(C)cc(=O)n(CC(=O)Nc4ccc(OC)c(OC)c4)c32)cc1 8.53%
CCOC(=O)c1c(C)[nH]c(C)c1S(=O)(=O)N1CCCC(C(=O)N2CCN(c3cc(C)ccc3C)CC2)C1 (stereo not drawn) -50.2%
O=C(CNS(=O)(=O)c1ccc(Br)s1)N1CCN(c2ccccc2F)CC1 -20.4%
Cc1nn(CC(=O)N2CCN(c3ccccc3)CC2)c(=O)c2cccn12 -4.85%
Cc1ccc(-c2nc3c(cnn3-c3ccccc3)c(=O)n2-c2ccc(Cl)cc2)cc1 -14.7%
COc1cccc(OC)c1C(=O)Nc1ccc2c(c1)CCCN2S(=O)(=O)c1ccc(C)cc1 -22%
O=C(COCc1cc(-c2ccco2)on1)Nc1ccc(OC(F)(F)F)cc1 -6.72%
Cc1oc(-c2ccc(Cl)cc2)nc1Cn1c(=O)cc(-c2ccccc2)c2c(C)nn(C)c21 -25.1%
CCN1CCN(C(=O)c2ccc3c(c2)N(Cc2cc(C)ccc2C)C(=O)c2ccccc2S3=O)CC1 (stereo not drawn) -14.2%
COc1ccc(NC(=O)Cn2cc(C(=O)C3CC3)c3ccccc32)cc1 -11.7%
COC(=O)c1cc(NC(=O)CN(c2ccccc2)S(=O)(=O)N(C)C)ccc1Cl -26%
NS(=O)(=O)c1ccc(CCNc2nc3c(-c4cccc(F)c4)nnn3c3ccc(Cl)cc23)cc1 15.9%
CCOc1ccccc1NC(=O)Cn1nnc2sc3c(c2c1=O)CCC(C(C)(C)C)C3 (stereo not drawn) -0.0682%
Cc1ccc(CSc2nc3ccc(NC(=O)COc4ccccc4F)cc3s2)cc1 -5.95%
CCN(CC)CCCNC(=O)Cn1c(-c2cccs2)cc2cc(Cl)ccc21 -24.5%
O=C(CCCCn1c(=O)[nH]c2ccsc2c1=O)N1CCN(c2cccc(Cl)c2)CC1 -35.6%
CCCCN(CCCC)S(=O)(=O)c1ccc2oc(C(=O)NCc3ccccc3)c(C)c2c1 -2.51%
CCOC(=O)c1c(C)oc2c(Cl)cc(NS(=O)(=O)c3ccc(Cl)c(C)c3)cc12 -12.9%
Cc1cc(C)c(/C=C/c2onc(C)c2S(=O)(=O)N2CCC(C(=O)NCc3ccco3)CC2)c(C)c1 -25%
CCOC(=O)N1CCN(C(=O)CN(c2ccc(C)cc2C)S(=O)(=O)c2ccccc2)CC1 -11.7%
CCOC(=O)c1c(C)[nH]c(C)c1S(=O)(=O)N(C)CC(=O)N1CCN(c2ccccc2OC)CC1 -13.1%
O=C(CN1C(=O)C2(SCC(=O)N2c2cccc(Cl)c2)c2ccccc21)NC1CCCCC1 (stereo not drawn) -16.2%
CCCNC(=O)CN1C(=O)c2cccnc2Sc2ccccc21 -9.92%
